Reference: PubChem BioAssay AID504332 (National Center for Advancing Translational Sciences (NCATS), 2011)
Values joined by “and” are separate entries in the source; they are usually repeats but may differ in a detail not shown here. Equal entries are not always repeated. In all, about 350,000 compounds went through this assay and about 31,000 (8.9%) were called active. The shares of active, inactive and inconclusive entries below differ from those in the screen. Calls follow the shape of the dose curve; as a rule, active = well fitted inhibition curve with a large enough effect; inconclusive = small, poorly fitted or top-dose-only effect; inactive = no such curve, though single readings can be large or run the other way. Potencies of inconclusive entries are doubtful fits and often do not repeat. Some compounds were tested as several samples or in several runs, with calls that do not always agree.

Target: Histone-lysine N-methyltransferase EHMT2 (Homo sapiens) (UniProt Q96KQ7)
Assay: qHTS Assay for Inhibitors of Histone Lysine Methyltransferase G9a; also: nearly all actives have a fitted effect of over 75% in size
Conditions: G9a H3K9 monomethylation, AlphaScreen, 2 h; activity, negative = inhibition: at 59 µM (top of the series) unless noted
In short: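 Methyltransferase reactions run at room temperature for 2 h (20 nM enzyme, 500 nM biotin-H3K9 peptide, 20 uM SAM) after a 15 min compound preincubation; product detected by AlphaScreen beads and anti-H3K9me1 antibody.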
% is scaled to controls: 0 for no effect and ±100 for the full control effect; potency is read from the fitted curve at half-maximal effect; tags tell the direction and shape of the fitted curve.

Chain of UniProt Q96KQ7 (Q96KQ7 whole entry, looked up): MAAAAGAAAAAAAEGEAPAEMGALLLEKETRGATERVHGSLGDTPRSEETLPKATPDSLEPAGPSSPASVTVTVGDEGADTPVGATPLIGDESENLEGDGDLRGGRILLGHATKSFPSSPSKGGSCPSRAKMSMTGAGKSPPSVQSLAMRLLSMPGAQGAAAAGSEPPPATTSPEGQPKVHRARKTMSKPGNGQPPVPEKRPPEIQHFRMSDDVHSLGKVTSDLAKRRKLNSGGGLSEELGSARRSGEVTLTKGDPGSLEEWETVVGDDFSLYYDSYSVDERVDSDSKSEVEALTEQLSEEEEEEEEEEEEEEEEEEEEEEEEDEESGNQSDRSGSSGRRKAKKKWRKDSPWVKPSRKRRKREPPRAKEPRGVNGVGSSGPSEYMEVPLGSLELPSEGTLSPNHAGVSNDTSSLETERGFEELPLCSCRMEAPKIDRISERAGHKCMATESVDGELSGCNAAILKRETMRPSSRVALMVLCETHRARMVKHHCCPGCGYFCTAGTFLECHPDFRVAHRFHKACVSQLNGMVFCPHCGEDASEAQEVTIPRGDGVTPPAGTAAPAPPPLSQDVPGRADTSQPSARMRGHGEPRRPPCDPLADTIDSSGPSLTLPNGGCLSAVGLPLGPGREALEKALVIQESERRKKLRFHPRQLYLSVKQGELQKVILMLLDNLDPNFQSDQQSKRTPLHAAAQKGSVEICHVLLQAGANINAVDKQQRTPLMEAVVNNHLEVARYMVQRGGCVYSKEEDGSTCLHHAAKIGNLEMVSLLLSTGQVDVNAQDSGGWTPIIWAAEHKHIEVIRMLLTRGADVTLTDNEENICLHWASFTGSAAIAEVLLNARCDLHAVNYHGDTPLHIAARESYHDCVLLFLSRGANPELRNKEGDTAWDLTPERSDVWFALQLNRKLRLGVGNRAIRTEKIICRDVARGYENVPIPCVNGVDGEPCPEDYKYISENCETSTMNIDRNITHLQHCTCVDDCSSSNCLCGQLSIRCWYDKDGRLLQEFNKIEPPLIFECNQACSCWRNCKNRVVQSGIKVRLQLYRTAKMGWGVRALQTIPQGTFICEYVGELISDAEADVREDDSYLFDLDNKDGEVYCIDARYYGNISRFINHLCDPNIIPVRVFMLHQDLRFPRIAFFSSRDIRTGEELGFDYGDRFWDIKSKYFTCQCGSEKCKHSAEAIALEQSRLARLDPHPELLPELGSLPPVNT

SMILES	Potency	activity, negative = inhibition
CCn1nnc(NC(=O)CSc2ccc(Cl)cc2)n1	active: 70.8 µM	
O=c1ccc(-c2nc3ccccc3n2Cc2ccc(Cl)cc2)c[nH]1		inactive: 1.46% [at 2.33 µM]
Clc1ccccc1-c1nn2c(-c3ccncc3)nnc2s1	active: 3.16 µM	
COc1ccc(CCNCCN2CCOCC2)cc1	active: 3.55 µM	
C=C(C)Cn1c(=O)c2c(nc3n2CCCN3Cc2ccccc2)n(C)c1=O	inconclusive: 89.1 µM [inhibitor, single point]	
Cc1ccc(S(=O)(=O)N2CCN(CC(=O)N/N=C/c3ccc(Br)s3)CC2)cc1		inactive: 1.4% [at 102 µM]
CCOc1ccc(OCCC(=O)OCC(=O)Nc2ccc(N3CCOCC3)cc2)cc1	inconclusive: 3.16 µM [inhibitor, partial curve, poor fit]	
C=CCn1c(CSc2nc3ccccc3s2)nnc1SCC(=O)NCc1ccccc1	inconclusive: 89.1 µM [inhibitor, single point]	
CCOc1cccc(-c2cc(C(=O)N/N=C/c3ccc(OC)c(CN4CCOCC4)c3)c3ccccc3n2)c1	inconclusive: 39.8 µM [inhibitor, single point]	
Cc1cc(N2CCCCC2)nc2ccc(NC(=O)c3ccc(Br)o3)cc12	active: 50.1 µM	
Cc1ccc(NS(=O)(=O)c2ccc(CCC(=O)NCc3cccnc3)cc2)cc1	active: 39.8 µM	
Cc1cccc(Nc2nc(N)c([N+](=O)[O-])c(N3CCC(C)CC3)n2)c1	active: 50.1 µM	
CCN(CC)C(=O)c1ccc2c(=O)n(Cc3cccc(Br)c3)c(=S)[nH]c2c1		inactive: -2.97% [at 102 µM]
O=C(O)c1ccc(-c2ccccc2C(F)(F)F)s1	inconclusive: 39.8 µM [inhibitor, partial curve]	
Cc1ccc(N(CC(O)COCc2ccco2)S(=O)(=O)c2ccc(C)cc2)cc1 (stereo unspecified)		inconclusive: -84.3% [inhibitor]
CC(=O)N1c2ccc(S(=O)(=O)N3CCCC3)cc2CC1C(=O)Nc1cc(C)cc(C)c1 (stereo unspecified)		inactive: 15.6%
Cc1ccc(N/N=C2/CCCNC2=O)cc1	active: 25.1 µM	
COc1ccc(/C=C/C(=O)OCC(=O)NCCC2=CCCCC2)cc1		inactive: -0.634% [at 102 µM]
COc1ccc2c(C)cc(N3CCCCCC3)nc2c1	inconclusive: 56.2 µM [inhibitor, partial curve, poor fit]	
CC1(C)CC(=O)C=C(Nc2ccc(F)cc2F)C1	inconclusive: 39.8 µM [inhibitor, single point]	
O=C(c1ccc(N2CCOCC2)c([N+](=O)[O-])c1)N1CCN(Cc2ccccc2)CC1		inactive: -12.1% [at 102 µM]
COc1cccc(NC(=O)CSC2=Nc3ccccc3N=C(c3ccc(F)cc3)C2)c1		inactive: -10.5%
COc1cc(OC)cc(-c2nc(-c3ccccc3OC)no2)c1		inactive: -14.8%
N#C/C(=C\c1c(N(Cc2ccccc2)Cc2ccccc2)nc2ccccn2c1=O)C(N)=O	inconclusive: 15.8 µM [inhibitor, partial curve]	

SMILES	Potency	activity, negative = inhibition
C=CCn1c(CNC(=O)c2ccco2)nnc1SCC(=O)c1ccccc1	inconclusive: 50.1 µM [inhibitor, partial curve, poor fit]	
Cc1ccc(C(=O)N2CCN(c3ccc(NC(=O)c4ccc5c(c4)OCCO5)cc3)CC2)cc1	inconclusive: 7.08 µM [inhibitor, partial curve, poor fit]	
Cc1ccc(NC(=O)c2cccc(N(C)C)c2)cc1NC(=O)c1ccc(O)cc1	inactive and active: 14.1 µM	
O=C(CN1C(=O)c2ccccc2C1=O)NCC(=O)OCC(=O)c1ccc(Cl)cc1	inconclusive: 10 µM [inhibitor, single point]	
COc1ccc2c(/C=N/Nc3ccc(C(=O)O)cc3)c[nH]c2c1	inconclusive: 56.2 µM [inhibitor, partial curve, poor fit]	
COc1ccccc1NC(=O)c1c(Nc2ccccc2F)sc(C(=O)Nc2cccc(Cl)c2)c1N	inconclusive: 1.58 µM [inhibitor, full curve, poor fit]	
O=C(Cn1cnc2c(cnn2-c2ccccc2)c1=O)N1CCN(c2ccc(F)cc2)CC1	inconclusive: 0.708 µM [inhibitor, full curve, poor fit]	
Cc1cccc(Cn2c(N3CCN(CCO)CC3)nc3c2c(=O)[nH]c(=O)n3C)c1		inactive: 10.5% [at 102 µM]
Cc1cccc(C(=O)OC(C)CN2C(C)CCCC2C)c1 (stereo unspecified)	inconclusive: 79.4 µM [inhibitor, partial curve, poor fit]	
CCOC(=O)c1[nH]c2ccc(F)cc2c1NC(=O)CN1CCN(C/C=C/c2ccccc2)CC1		inconclusive: -66% [inhibitor]
CC(=O)Nc1ccc(NC(=O)CSc2n[nH]c(-c3cccs3)n2)cc1		inactive: -26.5% [at 102 µM]
CCCc1nnc(SCC(=O)Nc2ccc(Cl)cc2Cl)o1	inconclusive: 25.1 µM [inhibitor, partial curve, poor fit]	
COc1ccccc1-c1ccc(SCC(=O)Nc2cc(C)on2)nn1	inconclusive: 89.1 µM [inhibitor, partial curve, poor fit]	
CCc1cccc(NC(=O)COC(=O)c2cc(=O)c3ccccc3o2)c1	inconclusive: 89.1 µM [inhibitor, partial curve, poor fit]	
O=C(O)c1ccc(C2CCCCC2)cn1	inconclusive: 0.708 µM [inhibitor, partial curve, poor fit]	
Cc1ccc(C2C=C(c3ccc(Cl)cc3)Nc3nc(NS(=O)(=O)c4ccccc4)nn32)cc1 (stereo unspecified)	inconclusive: 31.6 µM [inhibitor, partial curve, poor fit]	
O=C(CSc1nnnn1C1CCCCC1)NCc1ccc2c(c1)OCO2		inactive: -1.83% [at 102 µM]
Cc1cc(C(=O)COC(=O)c2ccc[nH]c2=O)c(C)n1CCc1ccc(F)cc1	inconclusive: 44.7 µM [inhibitor, partial curve, poor fit]	
O=C(c1ccc(C(F)(F)F)cc1)N1CCC(=O)N(C(COCc2ccccc2)Cc2ccccc2)CC1 (stereo unspecified)	active: 56.2 µM	
CCN(CC)C(=O)CSc1nc2ccc(NC(=O)CSc3nnc(N)s3)cc2s1	inconclusive: 89.1 µM [inhibitor, single point]	
Cc1cc(C)cc(OCC(=O)Nc2cnn(CCCC(=O)O)c2)c1	inconclusive: 25.1 µM [inhibitor, partial curve]	
Cc1cc(C)c(C(=O)CSc2nnc(C)c(=O)[nH]2)cc1C	active: 39.8 µM	
Cc1ccc(CN2CCN(/N=C\C(Br)=C\c3ccccc3)CC2)cc1	inconclusive: 20 µM [inhibitor, partial curve, poor fit]	
CCOc1ccc(C(=O)CN2CCN(S(=O)(=O)c3ccc(F)cc3)CC2)cc1	inconclusive: 50.1 µM [inhibitor, partial curve, poor fit]	

SMILES	Potency	activity, negative = inhibition
COC(=O)C(Cc1cccc(C)n1)(c1ccccc1)c1ccccc1		inactive: 66.4% [at 102 µM]
Cc1ccc(C)c(NC(=O)CN(C)C(=O)c2ccc(-c3cccc(C(F)(F)F)c3)o2)c1		inactive: -2.35% [at 102 µM]
Oc1csc(Cc2nc(-c3ccc(Br)cc3)cs2)n1	inconclusive: 17.8 µM [inhibitor, full curve]	
COc1ccc2c(c1)OC[C@H]1[C@H]2N2C(=O)CN(Cc3ccco3)C(=O)[C@@]2(C)[C@H]1c1ccccc1		inactive: -3.83% [at 0.501 µM]
O=C(O)COc1c(F)c(F)c(C(F)(F)F)c(F)c1F	inconclusive: 0.891 µM [inhibitor, full curve, poor fit]	
COc1cc(C(=O)Nc2cc3c(cc2C)n(C)c(=O)c(=O)n3C)cc(OC)c1OC		inactive: -15.7%
Cn1c(=O)c2c(nc(NNC(=O)C(F)(F)F)n2C)n(C)c1=O	active: 6.31 µM	
Fc1ccc(N/N=C/c2cccnc2)c(F)c1	active: 31.6 µM	
O=c1cc(CN2CCN(c3ccccc3)CC2)nc2scc(-c3ccccc3)n12		inactive: -43.6% [at 102 µM]
CCOc1ccc(-c2cc(OC(=O)c3ccc(F)cc3)c3c(C)oc(C)c3c(=O)c2)cc1	inconclusive: 20 µM [inhibitor, single point]	
CCN1CCN(c2cc(C)c3cc(NC(=S)N4CCCC4)ccc3n2)CC1	inconclusive: 56.2 µM [inhibitor, single point]	
O=C(c1ccc(-c2cccc(C(F)(F)F)c2)o1)N1CCN(c2ccccc2)CC1	active: 3.55 µM	
COC(=O)C(C(=O)Nc1ccc(OC)cc1)C1CCCCCC1 (stereo unspecified)		inactive: -19%
Cc1ccccc1N(C(=O)c1ccco1)C(C(=O)NC1CCCC1)c1cccnc1 (stereo unspecified)		inactive: 9.11% [at 102 µM]
COc1ccc(OC)c(/C=C2\Oc3cc(OCC(=O)N4CCC[C@H]4C(=O)O)ccc3C2=O)c1	inconclusive: 28.2 µM [inhibitor, full curve]	
Cc1cccc(N(CC(=O)O)CC(=O)O)c1	active: 11.2 µM	
O=C(Nc1ccc(Br)cc1F)c1cc(S(=O)(=O)NCc2ccc(F)cc2)ccc1F		inactive: 2.53%
Cc1ccc(CNC(=O)CN2CCC(C(N)=O)CC2)cc1	inconclusive: 50.1 µM [inhibitor, partial curve, poor fit]	
COc1ccc(S(=O)(=O)Nc2nnc(C(C)(C)C)s2)cc1	active: 1.78 µM	
COc1ccc(Br)cc1S(=O)(=O)N(CC(=O)N1CCN(C)CC1)c1ccccc1		inactive: 14% [at 102 µM]
Cc1sc2c(=O)n3c(nc2c1C(=O)NCCCN1CCOCC1)CCCCC3	inconclusive: 89.1 µM [inhibitor, single point]	
COc1ccc(-n2nc(C(=O)NCC(=O)NCCC3=CCCCC3)c3ccccc3c2=O)cc1OC	active: 50.1 µM	
COc1cccc(/C=N/NC(=O)c2cc3c(OC)c(OC)ccc3[nH]2)c1OC	inconclusive: 39.8 µM [inhibitor, partial curve, poor fit]	
